The values that follow come from article PMC12136788.

This is one part of the list.

The labels stand for the following.
T1: UNK ZnF1-3 (human, UniProt Q9C0B0 31-174)
T1 sequence: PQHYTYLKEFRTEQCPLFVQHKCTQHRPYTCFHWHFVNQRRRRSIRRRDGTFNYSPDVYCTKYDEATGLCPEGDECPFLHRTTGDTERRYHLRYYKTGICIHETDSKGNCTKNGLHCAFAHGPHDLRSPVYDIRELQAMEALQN

B1: chr11:94609001:94609002:+_ENSG00000166025_ENST00000433060|hu_hu|FALSE|FALSE (ssRNA)
RNA: GGGAGUUCUACAGUCCGACGAUCAGAGAUGUGAACACAUAGGAGGCAUGGCAAGAGAAUUGAUUUUUAAAAAUCUGUGUGCUAAUGAGGAUGAUCCCCCCUUGAAGUGGACACUUUGAGAGGCUCUGAGGCCAAAGACUCAUUCAACAGAGGAUUGAGCAUCA
B2: chr3:179287964:179287965:+_ENSG00000136518_ENST00000429709|hu_hu|hu_hu_hu_mus_True|58_108 (ssRNA)
RNA: GGGAGUUCUACAGUCCGACGAUCCUUUAGAGGUGAAAUGGCCUCCAUGUUCUCCCUGGGCACGCGGAGGGCAUUGGUAUCUAUGUAGUAGGUGGGCCCGCCCUGCUUGCCUUUGUCACCAUCAAUCUCCAUCAUUGUACUUCCCAACAGAGGAUUGAGCAUCA
B3: chr1:172123744:172123745:-_ENSMUSG00000026667_ENSMUST00000150821|mus_mus|motif|central (ssRNA)
RNA: GGGAGUUCUACAGUCCGACGAUCCAGCUCGCUGAAACACAGUGCUCACACUUUAUAGGGAGGUGGAAAUAAAGUCCUCUGCGGUUCAGCAAGAAAAUAGACAUCUGAAAGACUGAUAAUGAAAAAAGAACAUCUUGGUACUAACAACAGAGGAUUGAGCAUCA
B4: chr3:110853029:110853030:+_ENSG00000177707_ENST00000485303|hu_hu|FALSE|FALSE (ssRNA)
RNA: GGGAGUUCUACAGUCCGACGAUCUGGUUGCUAAACAUACCACUCCCUCCUGGAAAUUACGGAACCAUCUACAUGUGAAACUAAGUCAUCUUCGUUUUCAUCAUAAUGUUCAUCACUGACAAACUUCAUUCCCAUUUUUAGAUCCAACAGAGGAUUGAGCAUCA
B5: chr8:95500983:95500984:-_ENSG00000164944_ENST00000437199|hu_hu|hu_hu_hu_mus_True|8_108 (ssRNA)
RNA: GGGAGUUCUACAGUCCGACGAUCAGAAGGAUUUUUACGAGUAAAGGACCGUACAUGACGGCCUCUACCACUGCCUCCACUAACAAACUUUCCUCUCGAGCCUCCACUGCCGCUAUUUGUACUAGCCCCAGGAAGGUCCAGGCCCAACAGAGGAUUGAGCAUCA
B6: 100488932_100489052_434_3pUTR_ENSMUSG00000008763_ENSMUST00000008907|mouse|control|control (ssRNA)
RNA: GGGAGUUCUACAGUCCGACGAUCAUUAUUAUUAUUAUUUACGAGGCCACCUCUUUCACGCUCUCCGAUUACAUCCAGAAGCCCGGGUGACCUCCCAAGCGAUCGUUGGUUUCUGUCCCGUCAGAUCUUCUCGCCAUUUGGCUCCAACAGAGGAUUGAGCAUCA
B7: 10575863_10575983_2175_3pUTR_ENSMUSG00000024668_ENSMUST00000025570|mouse|control|control (ssRNA)
RNA: GGGAGUUCUACAGUCCGACGAUCAAUAGAGCAAAGGCUUGGACUCAUAACCACCAUGCUACACUGUACACCAUGCUACCCUGCAUCUUCUUACCAGAGCUACAGUGGGGCCUGGGGGAUUCUGGGUGGAUCCUCACUUUGGGACAACAGAGGAUUGAGCAUCA
B8: chr7:108213676:108213677:+_ENSG00000128590_ENST00000249356|hu_mus|motif|central (ssRNA)
RNA: GGGAGUUCUACAGUCCGACGAUCUCCAUGAAAUCUAUUUUCAGUCUGUACUGUGUGUCGAUUGGUGGUAUCAAAGCCACGGAAAGAAAACAUUUUCUCCAUGUCUUCAAACAUAUCAUCAAACAAUCCGCCUCCAAAAGAAAACAACAGAGGAUUGAGCAUCA
B9: chrX:71549762:71549763:+_ENSMUSG00000019087_ENSMUST00000019231|mus_mus|mus_mus_mus_hu_False|18_98 (ssRNA)
RNA: GGGAGUUCUACAGUCCGACGAUCAAACCCGUGUACUCACUCUUAACAGCACAACAUCACCAGAAAACGAUAACGACAGCCAAGCAGGACAGACAGUUAAGUAGUACUUCCACACUCCGCAAAUUCAGGAGCCCUAUAACCUUACAACAGAGGAUUGAGCAUCA
B10: 127824504_127824753_2221_3pUTR_ENSMUSG00000014498_ENSMUST00000014642|mouse|control|control (ssRNA)
RNA: GGGAGUUCUACAGUCCGACGAUCUGGAGGGCAGUGCGGCCCCGGAGGUCAGCAGCAUCAGCCGUGGAUCCCUUCUCUAGCAGCAGAUGUACACAGUCCACAUGGCCAUUCAUAAUGGCCAGCAUCAGUGGGGUUUGUCCAUAGCAACAGAGGAUUGAGCAUCA
B11: chr12:74934348:74934349:+_ENSG00000253719_ENST00000519948|hu_hu|motif|central (ssRNA)
RNA: GGGAGUUCUACAGUCCGACGAUCUUAUUUUAGCUCUUGCCAAGGUUUGAUUUUUUUUAAGUUAAUGCAAUUCUUUAAGACGGAUCUGUAACUAGGCCCCAAGCCUGAUCAGGACAACUCUAGGACAAGGCAGUAACAGUUCCACAACAGAGGAUUGAGCAUCA
B12: chr8:98817645:98817646:+_ENSG00000104341_ENST00000445593|hu_mus|FALSE|FALSE (ssRNA)
RNA: GGGAGUUCUACAGUCCGACGAUCAAUGCACAUGUUGGCAUCAUCCAUGAACUCAAACUCCCCUCCUAGUUCAGAGCCUGAAAAGUGAUACUGAUUGGGAUCUGCCAGGGCACUCAGCAGGAUCAGCAGGACCACAGCAUUGAUCAACAGAGGAUUGAGCAUCA
B13: chr2:202488911:202488912:-_ENSG00000155755_ENST00000286196|hu_mus|hu_hu_hu_mus_False|28_88 (ssRNA)
RNA: GGGAGUUCUACAGUCCGACGAUCAUUGAAACAUUUUUCAUAAUCUCAGAGAUGUUUUCAGCAUUAUGUAACAAAAGCUCAAUUGUAAAUACAUGUAUCUUAUAAAAAUAAAAAUACAAACACGAGUGGGGAGCGCAGGCGCCACAACAGAGGAUUGAGCAUCA
B14: chr1:225977404:225977405:+_ENSG00000143742_ENST00000304786|hu_hu|FALSE|FALSE (ssRNA)
RNA: GGGAGUUCUACAGUCCGACGAUCAAUACAUGGAUCUGACAAAAUGGUUACAUUUAAUGUUCUUUUAAAGAAAGAUGAACUAAAUUUAAGAAGAAUUGGUUUUUCCUAAUAUCUCAUUUUCAAAUUACUGAUACAAAUUUGCCACAACAGAGGAUUGAGCAUCA
B15: 19412715_19413243_14704_CDS_ENSG00000127481_ENST00000375254|human|control|control (ssRNA)
RNA: GGGAGUUCUACAGUCCGACGAUCGGCAUUCUGCAGGGCGGCACUCUCCCACUCUUCCCGGCCUCGAGCCAACCUGACGGCAGCCAGAUGGCAGUCGUAGUGCACAAUGUUGAAGUGGGACACGGUGCUGUAGCCCUGCUGUUUCAACAGAGGAUUGAGCAUCA
B16: chr10:1038518:1038519:+_ENSG00000107937_ENST00000545048|hu_hu|hu_hu_hu_mus_False|58_58 (ssRNA)
RNA: GGGAGUUCUACAGUCCGACGAUCCAGUCUGUCAUGGUAAUUCUGUUGAGUAAAUUUGACUUUUCUCAUAUAAAAAUGUCUAAUGCGAUGAAUUUGAUAAUGUUUAUGAAUAACCGUUGGAGUCUUUCGUUGAGUCUUGGAUAACAACAGAGGAUUGAGCAUCA
B17: chr7:80921385:80921386:+_ENSMUSG00000078670_ENSMUST00000107456|mus_mus|FALSE|FALSE (ssRNA)
RNA: GGGAGUUCUACAGUCCGACGAUCUAGGGCUGAAAGAACCAGUGUCAAGUCAGGCUCCUGAGCCAGGGUGGAUCUUCCCACCUACCGCCAUCACCACAACCCCAGUCAGAACUGGAGAACCUGACAGUGGUGGAGCUGGCCAAGCAACAGAGGAUUGAGCAUCA
B18: chr4:136884974:136884975:-_ENSMUSG00000006699_ENSMUST00000030417|mus_hu|motif|central (ssRNA)
RNA: GGGAGUUCUACAGUCCGACGAUCCACCCACUUUUCUUUCACGUUUUCAAAUGAAGAUGGAGAGACCACUGAAAAACAGACGGGAAAUACAUCUGUUUGUGGAUAACUCAGCGGUCGUAAUCUGUCAUAAUCCUCUUGCCCUGCCAACAGAGGAUUGAGCAUCA
B19: chr3:100103413:100103414:-_ENSG00000154174_ENST00000284320|hu_mus|FALSE|FALSE (ssRNA)
RNA: GGGAGUUCUACAGUCCGACGAUCAAGAAGUUUAAGAACUUUAUCAGCUAACAGCAUGCUCUGCUCAUUUUGAAACCCUUCUAAUAUACACACAGCAGUGACGUCUUCUAAACACUCCUUCUUAUUGUCUAGCUUCUCAUGGGCCAACAGAGGAUUGAGCAUCA
B20: chr4:17845017:17845018:+_ENSG00000109805_ENST00000514176|hu_mus|hu_hu_hu_mus_False|18_98 (ssRNA)
RNA: GGGAGUUCUACAGUCCGACGAUCGCUCUCUUAACUUGAUCUUCAUUUAAGGAACUCUGCAAGGUUAAGUUUACUUUUCUGUAGCGCAGCUGUUUUGGCUCGUCUGGGUAAUCUCAUUUCAUUUCUGGAUGGUGGUUCAUGAUCCAACAGAGGAUUGAGCAUCA
B21: 39178702_39179248_2937_CDS_ENSMUSG00000037475_ENSMUST00000047037|mouse|control|control (ssRNA)
RNA: GGGAGUUCUACAGUCCGACGAUCUGAAAAAAUGCAUCGAGGAAAUAUACACAGCUGUAAAAAUUUUGUGAUGGUCUCAUUUUUGGUAGACUUUGCUAAAAGCCAGUUGUCCUUUUCUAGUUUCAGUCUCUGAAGUACUCUUUGCAACAGAGGAUUGAGCAUCA
B22: chr2:162251599:162251600:+_ENSG00000115233_ENST00000409682|hu_hu|FALSE|FALSE (ssRNA)
RNA: GGGAGUUCUACAGUCCGACGAUCACAAUGUUCACUGUAGUCCUGAAGUGUCAAACCUUCCAUCCAACUCUUCUUAUGCAAAUUUAGCAACAUCUUCUGUUCCAGUUCAUUUUUCCGAUAGUUAAUAGUAAUGGAGUAAUAAUGCAACAGAGGAUUGAGCAUCA

The target in the experiment is T1, UNK ZnF1-3. The experiment can be described thus: nsRBNS (natural sequence RNA bind-n-seq); RBNS binding buffer (assumed for nsRBNS): 25 mM Tris pH 7.5, 150 mM KCl, 3 mM MgCl2, 0.01% Triton X-100, 500 ug/ml BSA, 20 U/ml SUPERase-In, 4 C; UNK is unkempt and MSI1 is Musashi-1; names of the RNAs are library labels; protein concentration not given here; high values mean tight binding.
Consider B1, for which the binding signal came to 2.4 enrichment R. Molecule B2 returned a binding signal of 0.766 enrichment R. B3 yielded a binding signal of 1.77 enrichment R. B4 returned a binding signal of 0.781 enrichment R. The molecule B5 gave a binding signal of 0.973 enrichment R. Next, B6: 0.322 enrichment R; B7: 1.5 enrichment R. Consider B8, for which the binding signal came to 0.743 enrichment R.

Take B9: the binding signal was 1.77 enrichment R. Next, B10: 1.75 enrichment R; B11: 0.895 enrichment R. In the case of B12 it was 1.29 enrichment R; in that of B13, 0.833 enrichment R; in that of B14, 0.69 enrichment R. In the case of B15 it was 0.268 enrichment R; in that of B16, 0.7 enrichment R. On to B17, for which the binding signal was determined as 0.603 enrichment R. Regarding B18, the binding signal turned out to be 1.01 enrichment R.

On to B19, for which the binding signal stood at 0.919 enrichment R. Next, B20: 0.465 enrichment R; B21: 0.951 enrichment R; B22: 1.06 enrichment R.
